From publication PMC4336329 (PLoS ONE, 2015)
In all, about 310,000 compounds went through this assay and about 2,200 (0.71%) showed an effect of 50% or more. Effects have a minus sign here. The list shows a part of the results.

The molecules below were run against human ether-à-go-go-related gene (hERG) potassium channel (human, UniProt Q12809) (assay: primary screen, population patch clamp on CHO cells stably expressing hERG).
human ether-à-go-go-related gene (hERG) potassium channel, sequence (Q12809 whole entry, looked up): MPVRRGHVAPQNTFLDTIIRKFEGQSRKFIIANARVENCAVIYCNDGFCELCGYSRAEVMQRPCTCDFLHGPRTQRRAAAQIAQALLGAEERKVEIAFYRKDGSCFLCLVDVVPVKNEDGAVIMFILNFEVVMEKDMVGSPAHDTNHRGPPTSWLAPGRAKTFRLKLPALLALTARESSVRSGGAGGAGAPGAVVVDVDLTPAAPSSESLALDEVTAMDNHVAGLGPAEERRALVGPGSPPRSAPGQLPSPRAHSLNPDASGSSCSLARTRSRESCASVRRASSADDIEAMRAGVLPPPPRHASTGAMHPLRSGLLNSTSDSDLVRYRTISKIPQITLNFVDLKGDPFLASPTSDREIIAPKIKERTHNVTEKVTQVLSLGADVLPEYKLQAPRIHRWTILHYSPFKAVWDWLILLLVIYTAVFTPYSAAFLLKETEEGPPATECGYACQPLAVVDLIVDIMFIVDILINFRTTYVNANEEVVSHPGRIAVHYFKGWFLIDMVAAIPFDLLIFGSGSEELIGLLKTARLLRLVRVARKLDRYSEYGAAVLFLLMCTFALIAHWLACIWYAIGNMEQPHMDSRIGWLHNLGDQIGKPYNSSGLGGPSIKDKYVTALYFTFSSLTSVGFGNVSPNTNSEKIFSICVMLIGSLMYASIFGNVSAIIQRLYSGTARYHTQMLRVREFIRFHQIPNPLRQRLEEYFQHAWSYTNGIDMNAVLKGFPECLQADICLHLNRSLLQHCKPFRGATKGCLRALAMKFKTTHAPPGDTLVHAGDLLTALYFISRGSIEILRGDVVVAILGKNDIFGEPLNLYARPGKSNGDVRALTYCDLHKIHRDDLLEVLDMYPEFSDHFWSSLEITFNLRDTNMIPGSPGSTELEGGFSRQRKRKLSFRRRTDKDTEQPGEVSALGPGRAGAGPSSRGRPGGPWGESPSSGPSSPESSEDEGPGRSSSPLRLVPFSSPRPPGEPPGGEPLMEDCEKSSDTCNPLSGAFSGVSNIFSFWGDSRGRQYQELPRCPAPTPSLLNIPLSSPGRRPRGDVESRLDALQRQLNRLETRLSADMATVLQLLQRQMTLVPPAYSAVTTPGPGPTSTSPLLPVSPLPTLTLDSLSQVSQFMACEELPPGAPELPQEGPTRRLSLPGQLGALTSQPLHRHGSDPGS
COC(=O)NC1CSCC1OC(=O)CN1C(=O)c2ccccc2C1=O (stereo not shown) was tested, and the “hERG current change (%, negative = inhibition) at 1uM” value was 6.52%.
With Cc1c(Cl)ccc2c(C(=O)NCCN3CCCCC3)cc(-c3ccccn3)nc12 the “hERG current change (%, negative = inhibition) at 1uM” value was 8.77%.
With Cc1cccc(N(Cc2ccccc2)C(=O)c2cc(S(=O)(=O)N3CCOCC3)ccc2Cl)c1 the “hERG current change (%, negative = inhibition) at 1uM” value was 5.46%.
CCn1c(SCC(=O)N2CCCC2)nc2c1c(=O)n(C)c(=O)n2C was tested, and the “hERG current change (%, negative = inhibition) at 1uM” value was 3.58%.
With CCOc1ccc(-c2nc(C#N)c(NCC3CCCO3)o2)cc1 (stereo not shown) the “hERG current change (%, negative = inhibition) at 1uM” value was -2.32%.
Cc1nc(N)sc1-c1nnc(SCC(=O)Nc2ccccc2C(F)(F)F)n1C was tested, and the “hERG current change (%, negative = inhibition) at 1uM” value was 15.3%.
Cc1cccc(C)c1NC(=S)NCCSc1ccc(Cl)cc1 was tested, and the “hERG current change (%, negative = inhibition) at 1uM” value was 11.3%.
With CCOC(=O)CCCNC(=O)c1cncc(Br)c1 the “hERG current change (%, negative = inhibition) at 1uM” value was 5.35%.
With O=C1[C@@H]2[C@@H]3C[C@@H]([C@H]4ON=C(c5ccc(Cl)cc5)[C@@H]34)[C@@H]2C(=O)N1C1CCCCC1 the “hERG current change (%, negative = inhibition) at 1uM” value was 8.61%.
With Cc1cc(C)n(CC(=O)NNC(=O)COc2ccc(F)cc2Br)n1 the “hERG current change (%, negative = inhibition) at 1uM” value was 5.97%.
In the case of CCOC(=O)C1CCN(CCC(=O)Nc2ccc(Cl)cc2)CC1, the “hERG current change (%, negative = inhibition) at 1uM” value is reported as -32.4%.
Cl.OC(COc1ccc2c(c1)CCC2)CN1CCN(c2cccc(Cl)c2)CC1 (stereo not shown) was tested, and the “hERG current change (%, negative = inhibition) at 1uM” value was -9.33%.
O=C(Nc1cccnc1)c1cc(S(=O)(=O)N2CCCCC2)c(Cl)cc1Cl was tested, and the “hERG current change (%, negative = inhibition) at 1uM” value was 8.31%.
With CC1CC(C)CN(C(=O)CSc2nnc(N)s2)C1 (stereo not shown) the “hERG current change (%, negative = inhibition) at 1uM” value was 9.08%.
In the case of CCSc1nc2ccccc2n1Cc1nc(N)nc(N(C)C)n1, the “hERG current change (%, negative = inhibition) at 1uM” value is reported as 9.82%.
With O=c1cc([O-])nc(SCc2ccccc2)n1-c1ccc(F)cc1.[K+] the “hERG current change (%, negative = inhibition) at 1uM” value was -1.35%.
For Cc1ccccc1C(=O)Nc1ccccc1-c1nnn(CC(=O)Nc2ccc3c(c2)OCCO3)n1, the “hERG current change (%, negative = inhibition) at 1uM” value was 2.38%.
In the case of C/C(=N\NC(=O)Cc1cc(=O)[nH][nH]1)c1cccc([N+](=O)[O-])c1, the “hERG current change (%, negative = inhibition) at 1uM” value is reported as 9.22%.
In the case of O=C(NNc1ccc(Cl)cc1)c1cccs1, the “hERG current change (%, negative = inhibition) at 1uM” value is reported as 9.61%.
With O=C(C[n+]1cc(-c2ccccc2)n2c1CCCCC2)c1ccc(Br)cc1.[Br-] the “hERG current change (%, negative = inhibition) at 1uM” value was -6.56%.
For Cn1c(N)c(S(=O)(=O)NCc2ccccc2Cl)c(=O)n(C)c1=O, the “hERG current change (%, negative = inhibition) at 1uM” value was -0.821%.
In the case of Cc1c(NC(=O)c2cccc(NC(=O)Cc3c(F)cccc3Cl)c2)c(=O)n(-c2ccccc2)n1C, the “hERG current change (%, negative = inhibition) at 1uM” value is reported as 4.85%.
In the case of Cc1ccc(C2(C(F)(F)F)NC(=O)N3CCCN=C3S2)cc1 (stereo not shown), the “hERG current change (%, negative = inhibition) at 1uM” value is reported as 22.8%.
In the case of COc1ccccc1-c1ccc(SCc2cccc(F)c2)nn1, the “hERG current change (%, negative = inhibition) at 1uM” value is reported as 3.52%.
With CCN(CC)CCN1C(=O)C(=O)/C(=C(/O)c2c(C)[nH]c(C(=O)OC)c2C)C1c1ccc(C)o1 (stereo not shown) the “hERG current change (%, negative = inhibition) at 1uM” value was 12.6%.
c1ccc(CCNc2nc(-c3ccncc3)nc3ccccc23)cc1 was tested, and the “hERG current change (%, negative = inhibition) at 1uM” value was 7.94%.
In the case of COc1ccc(-c2nn(-c3ccccc3)cc2CNC(=O)c2cccc([N+](=O)[O-])c2)cc1, the “hERG current change (%, negative = inhibition) at 1uM” value is reported as 14.6%.
With COc1ccccc1CNC(=O)COC(=O)c1nccnc1N the “hERG current change (%, negative = inhibition) at 1uM” value was 17.8%.
In the case of COc1ccc2c(c1)nc(SCC(O)c1ccccc1)n2C (stereo not shown), the “hERG current change (%, negative = inhibition) at 1uM” value is reported as -2.85%.
COc1ccc(COC(=O)N/N=C(\C)CC(=O)Nc2ccc(Cl)cc2)cc1 was tested, and the “hERG current change (%, negative = inhibition) at 1uM” value was -9.18%.
In the case of Cn1c(C(=O)NC2CCCCC2)cc2sccc21, the “hERG current change (%, negative = inhibition) at 1uM” value is reported as -2.26%.
With O=C(Nc1ccc(C(=O)O)cc1)/C(=C\c1cccc([N+](=O)[O-])c1)NC(=O)c1ccc(Br)o1 the “hERG current change (%, negative = inhibition) at 1uM” value was 14.3%.
With CN(C)/N=C/c1ccc(Sc2ccc([N+](=O)[O-])cc2[N+](=O)[O-])o1 the “hERG current change (%, negative = inhibition) at 1uM” value was 13.4%.
With CCN(CC)C(=O)C(=O)c1cccn1-c1c(Cl)cccc1C#N the “hERG current change (%, negative = inhibition) at 1uM” value was 9.45%.
CN1CCN(C(=O)/C=C/c2c(F)cccc2Cl)CC1 was tested, and the “hERG current change (%, negative = inhibition) at 1uM” value was 8.16%.
In the case of CN1CCN(Cc2nc3ccccc3c(=O)n2Cc2nc(-c3ccc([N+](=O)[O-])cc3)cs2)CC1, the “hERG current change (%, negative = inhibition) at 1uM” value is reported as -45.8%.
In the case of O=C(CSc1nc2ccccc2c(=O)n1-c1ccccc1F)NC1CCS(=O)(=O)C1 (stereo not shown), the “hERG current change (%, negative = inhibition) at 1uM” value is reported as -28.6%.
In the case of CCOC(=O)N/N=C/c1cn(Cc2ccc(F)cc2)c2ccccc12, the “hERG current change (%, negative = inhibition) at 1uM” value is reported as 12.5%.
For CCC(Sc1nc2ccncc2[nH]1)C(=O)Nc1ccc(C)c(Cl)c1 (stereo not shown), the “hERG current change (%, negative = inhibition) at 1uM” value was 4.57%.
For CN(Cc1ccc(F)cc1)C(=O)c1sccc1-c1ccccc1, the “hERG current change (%, negative = inhibition) at 1uM” value was 10%.
In the case of Cc1cc(C)n(C(=O)C23CC4CC(CC(C4)C2)C3)n1, the “hERG current change (%, negative = inhibition) at 1uM” value is reported as 15.4%.
In the case of CCCCc1cc2c(cc1NC(=O)CN1CCCCC1)OCCO2.Cl, the “hERG current change (%, negative = inhibition) at 1uM” value is reported as 10.1%.
Oc1ccc(CN2CCN(c3ccccc3)CC2)c2cccnc12 was tested, and the “hERG current change (%, negative = inhibition) at 1uM” value was 12.4%.
